Reference: the BET-seq Pho4 binding data (Le et al. 2018)
The other results are listed elsewhere or left out. These are noisy estimates, calculated here from bound and input reads.

target: T1, Pho4 (S. cerevisiae) (UniProt P07270); assay: relative binding free energy (BET-seq); higher = weaker binding; details: reference: library average
T1 sequence: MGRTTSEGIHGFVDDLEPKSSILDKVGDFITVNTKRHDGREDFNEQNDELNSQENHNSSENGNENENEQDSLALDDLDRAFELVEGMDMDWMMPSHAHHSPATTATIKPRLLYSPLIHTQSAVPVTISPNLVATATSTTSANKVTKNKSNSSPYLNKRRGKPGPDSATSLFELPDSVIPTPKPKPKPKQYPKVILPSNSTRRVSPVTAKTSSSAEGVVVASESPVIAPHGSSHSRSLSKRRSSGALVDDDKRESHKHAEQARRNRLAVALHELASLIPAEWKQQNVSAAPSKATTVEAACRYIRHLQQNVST

Sequence | relative binding free energy [kcal/mol]
AATGCCACGTGTAGGG | -0.12
GTTGTCACGTGATAAA | 0.14
GGGGACACGTGAATAT | 0.28
TACAGCACGTGGGTAG | -0.2
AGGATCACGTGGTGCA | 0.05
TGAAGCACGTGTGTTG | -0.01
GGGCACACGTGGAGGA | -0.02
TTAGACACGTGGGTAC | -0.11
AAGGGCACGTGCGGCG | -0.21
GTTAGCACGTGTGGAG | 0.09
GGGAGCACGTGCGTTG | -0.16
ATTAACACGTGATTAT | 0.12
AGGGCCACGTGTCGGG | -0.11
AGTTTCACGTGGTGCG | 0.29
GGGTCCACGTGTCTGG | 0.09
AGTGGCACGTGTAGTG | -0.07
TATGTCACGTGTGTGT | 0.22
ACTGGCACGTGCGGTT | -0.01
AAAATCACGTGAGTGG | 0.3
ATTAGCACGTGGCGGA | -0.09
TTGGGCACGTGCATCT | -0.11
TATTGCACGTGGTACA | -0.15
TACGGCACGTGTTTTG | 0.05
ATAAACACGTGATGGT | 0.06
TTAGGCACGTGGGAAA | -0.04

Sequence | relative binding free energy [kcal/mol]
TGGGTCACGTGAGACT | 0.4
GTTCTCACGTGTTGGA | 0.27
TTTTACACGTGCGGCT | 0.06
AAGTTCACGTGGTAAG | 0.12
GGTTACACGTGTAGTG | 0.18
GTAGCCACGTGGTTAG | -0.19
TCGTGCACGTGTGGTG | 0.01
GGAGACACGTGCAGGT | 0.01
GCGTACACGTGGGGTG | 0.01
CTTGTCACGTGGTGAG | 0.1
AATTCCACGTGGGGTG | -0.12
TTGCGCACGTGTTTTT | -0.07
ATGTTCACGTGGTAAT | 0.17
TTAGTCACGTGATGCT | 0.16
AGTTCCACGTGGCGGG | 0.09
TAGCACACGTGGGGGG | -0.18
AGCGTCACGTGGGGGT | -0.17
GGGAGCACGTGAGGTA | 0.06
AACGGCACGTGGGGAG | -0.13
AAATGCACGTGGTTGT | -0.08
TTTATCACGTGATGCA | 0.18
GGTGGCACGTGGTTAA | -0.01
AGTTGCACGTGCGGAT | -0.15
TTTACCACGTGATGTT | 0.11
GGTGCCACGTGGTGGA | -0.19

Sequence | relative binding free energy [kcal/mol]
GGTAACACGTGATCGT | 0.29
TGAAGCACGTGGATGG | -0.06
AGTTGCACGTGTTAAA | 0.06
CTGGGCACGTGTCAGG | -0.16
TGAAACACGTGGTGAA | 0.22
GGTGTCACGTGGTCTT | -0.03
GGTGCCACGTGGGGCG | -0.3
CACTTCACGTGGTGGT | 0.11
TGTCGCACGTGAATTG | 0.11
TTGATCACGTGGATCG | 0.07
TGATTCACGTGGCTTG | 0.06
TTGTCCACGTGTGAGA | 0.2
AATATCACGTGCTGGG | 0.07
CCGGTCACGTGTTTTG | 0.17
CGATGCACGTGTGTTA | 0.08
ATGGTCACGTGGCTGG | 0.07
GGAGTCACGTGAGGGA | 0.33
TCAGGCACGTGGTAGG | -0.15
TAAAGCACGTGAAGTG | 0.27
TAGGGCACGTGGAAGT | 0.04
TTTGCCACGTGAGATT | 0.27
TAGTGCACGTGATAGT | 0.01
ATTTACACGTGCAATT | 0.18
GTGGACACGTGCTGAG | 0.01
ACCTTCACGTGGGTGG | 0.13

Sequence | relative binding free energy [kcal/mol]
TTTATCACGTGAGTCG | 0.25
TGGTGCACGTGGCCTG | -0.24
TTTTGCACGTGACAGG | 0.11
CGATGCACGTGTGATT | 0.16
TTGAACACGTGTATCT | 0.15
ATAGTCACGTGCTTTT | 0.12
GTTAACACGTGCAGGG | -0.07
AACGTCACGTGGGTGG | -0.1
GTATGCACGTGGGAGA | -0.07
GCGTTCACGTGTGCGT | 0.24
GGGCTCACGTGGAGTT | 0.26
TATAGCACGTGTTGTG | -0.15
CTTAACACGTGTGGGC | 0.14
GGTAGCACGTGTATGA | -0.02
TTTATCACGTGGACTA | 0.19
CTGGACACGTGGCTGG | -0.12
TTGAGCACGTGAAATT | 0.13
TGCTGCACGTGGTTGA | 0.07
CGGGACACGTGTAGTG | 0.08
GGGTCCACGTGCGAGG | -0.04
CGTCTCACGTGGTTGG | 0.2
AACAACACGTGTGGGT | 0.05
GCATGCACGTGGCGGG | -0.05
GGCTACACGTGGGTAG | -0.06
TGATGCACGTGCGGTG | -0.03

Sequence | relative binding free energy [kcal/mol]
GTTGGCACGTGAATTG | 0.14
GGCCTCACGTGGGTTT | 0.19
AATTACACGTGTAAGT | 0.07
TTGCGCACGTGTGTTC | -0.02
GGGTACACGTGGAGCA | 0.15
TTGGGCACGTGGGTCC | -0.24
GGGGGCACGTGGCACG | -0.22
GGTTTCACGTGTTTGG | 0.35
ACTGGCACGTGATTTT | 0
GGTTTCACGTGAAGTC | 0.29
GTATTCACGTGGGGGT | 0.12
TAGGTCACGTGCGGGT | 0.09
TATAGCACGTGAAAGG | 0.21
ATACGCACGTGGGGTT | -0.31
CGGTTCACGTGAGGGG | 0.46
CATTTCACGTGGTTAT | 0.22
GTGGACACGTGTGGGG | 0.11
GGTGACACGTGTGCTA | 0.06
GGTCGCACGTGTATCG | 0.07
GTAATCACGTGGGATT | 0.16
GAGGACACGTGGGGGA | -0.14
ATGATCACGTGTATTG | 0.11
TGAGGCACGTGGAATA | -0.01
GATTTCACGTGTTGGA | 0.35
TAATTCACGTGAATTG | 0.34

Sequence | relative binding free energy [kcal/mol]
TTATGCACGTGTGGTC | 0.01
TTGGACACGTGTTGTT | 0.19
GTGGGCACGTGGAGCA | 0.03
CTTAACACGTGTTATG | -0.06
ATTGCCACGTGGGGAA | -0.05
GGTTGCACGTGGAATC | 0.21
GTGTCCACGTGTTAGA | 0.07
TAAGTCACGTGGAGTG | 0.18
CATTTCACGTGTATTA | 0.23
AAAGGCACGTGTTGGA | -0.21
AGGTGCACGTGGAGTC | 0.07
TGTGACACGTGGTAGA | -0.15
TTTGGCACGTGGACTA | -0.09
GTGTTCACGTGTGAAC | 0.26
GATCACACGTGGGGGG | 0.06
GGTCGCACGTGGTAGT | -0.15
CTGGACACGTGTGTTA | 0.11
GTTTGCACGTGGTTAG | 0.06
GGGTCCACGTGTGCAG | 0.04
GGTAACACGTGTGTTT | 0
CAGTGCACGTGGGTGC | -0.27
